# Experimental data from the RNAGym collection of RNA variant scans (doi:10.7554/elife.90254).
# Read counts are not given, so values of variants with three or more changes are uncertain.
# B1: LINE1-mini (parent)
# chain: GGCAGAGCUCAACACAGCGUGGCAAAGUGGCUGUGGCUAGACUGCC
# Variants of: B1
# Experiment: self-cleavage, relative activity (ratio to wild type); higher = more cleavage; in vitro, sequencing; the parent is a self-cleaving ribozyme
row,Variant,self-cleavage
1,C3A U20C G27A G33U,0.14
2,C3G C13A C45A,0.09
3,C3G G19A A24C,0.02
4,C3G C18G G30A G35U,0.09
5,C3G C8G C13U G44U,0.02
6,C3G U20C G40C G44A,0.04
7,C3G A11U U20G G22U U34A,0.05
8,C3G A4C G19U A39U,0.1
9,C3G G35U G40A,0.04
10,C3U A4U G7C C10U A14U G22U U38C A39C,0.11
11,C3U A4G A12U,0.11
12,C3G A4C U28C U34A,0.07
13,C3G A4U A11G G40U C46A,0.01
14,C3G A11G C31G,0.02
15,C3G C13U G17C G19U,0.11
16,C3U A12G G22A,0.24
17,C3G A25U A26C U43A,0.21
18,C3G C23A G44A,0.47
19,C3G A4U A24G,2.33
20,C3G U32C C37U,0.11
21,C3G C8A C13U A24C G29C,0.07
22,C3G U9G C18A G22A A26G U43C C46A,0.03
23,C3G A4U G5A C45A,0.54
24,C3G G30U C37G,0.12

row,Variant,self-cleavage
1,C3G G7C C15U,0.06
2,C3U A14C A16G U34G C37U,0.01
3,C3G C15U U20C C23G,0.37
4,C3G G5U C8A A16U,0.37
5,C3G A6C C23G,0.08
6,C3G G7A C8A U9C A12G U20A A39U,0.12
7,C3G U34A C37U,0.12
8,C3G C13G G27U C45A,0.12
9,C3G G5A G21C G22A G35C,0.08
10,C3G C18A G22A G29C U34A,0.05
11,C3G A25U U43A,0.07
12,C3G G17C A25U,0.06
13,C3G A4U C45A,0.06
14,C3G G22C C31G G33C G44U C46G,0.06
15,C3G G36U G40C A41U U43G,0.1
16,C3U A6G C8A U9C G27U A39U,0.07
17,C3G G5C U28A U38G C46U,0.05
18,C3G G19A G36U G40A,0.24
19,C3G A4U C18U G29A G40A A41G,0.2
20,C3G C31G G33C A41U,0.04
21,C3G A26U G27U U38C C45A,0.04
22,C3G A4U G5U C23U A41U U43G,0.05
23,C3G G22A G30A C31G,0.08
24,C3G C10U G36A,0.07

row,Variant,self-cleavage
1,C3G G5U A26G,0.09
2,C3G G7A A11C A12G A25C U38G,0
3,C3G C15A C42A U43G,0.12
4,C3G G21C G29A G30U,0.42
5,C3G C13A A24G G36A A41U C45A,0.08
6,C3A U9C G36C A41U C45G,0.02
7,C3G A4C G33C U34A,0.38
8,C3G C15U G21A U43A,0.16
9,C3G A41C G44A,0.08
10,C3G G17U U28C,0.07
11,C3G C23U U28A G40U A41U,0.06
12,C3G G21C A25G G30U G40U,0.08
13,C3G A14G U20C U34G G36A,0.06
14,C3G A14U C15A,0.07
15,C3G G5C G36C,0.06
16,C3G C8A C13U C18A G22A U28A G44C,0.19
17,C3G G7A A12U A14U A25G,0.1
18,C3U A12U G21C G29C,0.19
19,C3A U9G U43A,0.23
20,C3G A11C C18G,0.05
21,C3G A6G C8U U9C,0.01
22,C3G G17C G29A G40C A41C,0.01
23,C3U A4U C23A,0.06
24,C3G C13A A26U G40U,0.07

row,Variant,self-cleavage
1,C3G A12C C15U A16G U34G C42U G44C,0.01
2,C3G A12G U20G,0.07
3,C3A U32A U34G,0.07
4,C3G A12U G19U G27U,0.02
5,C3G C10G G30C G33C,0.01
6,C3G G5U C10U A41C,0.05
7,C3G G7C U20C G30A C31G,0.01
8,C3G C13A G17C G19A C42G,0.01
9,C3G G21A C31G,0.04
10,C3G U43C G44A,0.07
11,C3U A6U G40A,0.21
12,C3G U9A A12U C13U A26C G33U G40A,0.05
13,C3U A6C G19U U28C U32G G40U,0.05
14,C3U A11G C15U A26U,0.01
15,C3U A6G U9G C23G,0.13
16,C3U A4G C46G,0.05
17,C3G A26U G29A C31A G35A,0.08
18,C3U A4C C8A G17U A26U G27C,0.1
19,C3G U9G A24G,0.06
20,C3G C10A G17C,0.09
21,C3G C13A A24C C45U,0.06
22,C3G G21A C45G,1.12
23,C3A U28A C31G G35C,0.1
24,C3G G5A G40C,0.06

row,Variant,self-cleavage
1,C3G C8G U20C,0.01
2,C3G A6C A26G G36U A41U,0.03
3,C3G G7U U38C,0.08
4,C3U A6C U9G C13G G19A G40C A41C,0.05
5,C3G C15G U20G,0.04
6,C3G A4C C10A C23U,0.02
7,C3G A16G U43C C46G,0.03
8,C3G A4U A24U G40A,0.04
9,C3G G7U G27U,0.17
10,C3U A14G C23G A24C,0.16
11,C3G G7C U38G A39U,0.07
12,C3A U34A A41C,0.07
13,C3G G30C G36A,0.1
14,C3A U20C G21A G33C U38G C46A,0.01
15,C3G G22A C31U,0.05
16,C3G G22C C37A,0.08
17,C3G A11G A24U G40C,0.01
18,C3G C18A U28C,0.11
19,C3G G5C A14C A39U,0.09
20,C3G C13G G19C G27U G29U U38G G44U,0.01
21,C3G C10G A24G C31A,0.01
22,C3U A4G A41U,0.17
23,C3A U20A G22C A25U C45G,0.13
24,C3G G5U G7A,0.24

row,Variant,self-cleavage
1,C3G C8G G29A,0.02
2,C3G C10G C23G,0.03
3,C3U A14U G35C C37U,0.07
4,C3G G7U A24C C31U G44U,0.03
5,C3A U9G G19C U38A G44U,0
6,C3G G33U C46U,0.1
7,C3G C31U C42A,0.06
8,C3U A16C G29U,0.15
9,C3G A26C C37G C42A G44C,0.02
10,C3G C8G A16U U28A,0.06
11,C3U A11C G22U A39U G40A,0
12,C3G U9G G19A U43G,0.04
13,C3G G7A G19A G29U,1.35
14,C3G A6C A16U,0.07
15,C3G A4G G21A G22C U28C G30A,0.11
16,C3G G33U G35A G40U C45G,0.05
17,C3U A11U U32C G40C,0.02
18,C3G G19C G27A C46G,0.05
19,C3U A12U C23A U32C U43A,0.02
20,C3G A4G G5A C8U U43C,0.05
21,C3G G7U A26C G33A,0.08
22,C3G C8A C18G U32C C42A,0.13
23,C3U A6C A41C U43C,0.11
24,C3G A4G C8A U9A G17C U20A G29C G30A A41U,0.06

row,Variant,self-cleavage
1,C3G C13U G35U C46G,0.04
2,C3G C18G G27A C45A,0.13
3,C3G A16U C18U A25U U34G C37G,0.07
4,C3G A12G G36U C46U,0.04
5,C3G G7A A12G G21C C23G,0.03
6,C3G G17A G33U U38A,0
7,C3G A11U C13G C23G A25C U34C,0.01
8,C3G A12C C15U C18A G44C,0.01
9,C3G G29U U34C,0.06
10,C3U A14G U28G,0.17
11,C3U A12U U38C,0.17
12,C3G C15G G36A C37U G40A C46G,0.08
13,C3G G22A A41G,0.01
14,C3U A4U G17A A26U A39U G44U,0.01
15,C3U A4C C37U,0.1
16,C3G G33U G35U C45G,0.08
17,C3G U20A C31A C37G,0.02
18,C3U A12G U32G C46U,0.15
19,C3G C23U G44A,0.28
20,C3U A4G G27U G44C,0.08
21,C3G A24C G35U C45U,0.03
22,C3G A12U A26G U38C,0.03
23,C3G G7U C23U,0.13
